Where “and” joins values, the source holds several entries; their conditions need not be identical. Identical values can stand only once.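 Values below derive from 48-hour exposures of cells grown in 96-well plates, with endpoints linearly interpolated between the two concentrations bracketing the appropriate inhibition level. The concentration for 50% growth inhibition is given as GI50. Definition used: TGI = concentration required for complete inhibition of growth.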 Square brackets hold non-standard residues; d marks the D form. Peptide text beside a SMILES is read from it. * marks the point of attachment. Bn2Val = CC(C)[C@@H](C(=O)*)N(Cc1ccccc1)Cc1ccccc1; NMeV = CN[C@H](C(=O)O)C(C)C; X25 = COc1ccc(CN*)c(OC)c1; dNMeA = CN[C@H](C)C(=O)O; Boc = CC(C)(C)OC(=O)*; OBn = c1ccc(CO*)cc1 Some results are limits rather than exact numbers.

The subject of this test is NCI-H322M lung. The test can be described thus: NCI tumour cell line growth inhibition, 48 h.

Take `C#CCNC(=S)N/N=C(\C)c1ccccn1`: the GI50 was 0.421 µM and the TGI was above 100 µM.

On to `COC(=O)NNC(c1ccc(Cl)cc1)c1ccc(Cl)cc1`, for which the TGI is 36 µM.

Consider `CCN1CCN(Cc2ccc(NC(=O)Nc3nc4ccc(Oc5ccnc(C(=O)NC)c5)cc4s3)cc2C(F)(F)F)CC1`, for which the GI50 was 2.24 µM and the TGI was found to be 5.9 µM.

With `NC(=O)[C@@H](CC1CC1)[C@@H](CCC(F)(F)F)C(=O)N[C@H]1N=C(c2ccccc2)c2cccc(F)c2NC1=O`, the GI50 was 37.1 µM and the TGI was above 100 µM.

Compound `COc1ccc2c(c1)CC[C@@H]1C2CC[C@](C)(C#N)C1CC#N` (stereo partly specified) displayed a TGI above 100 µM.

`COc1ccc2nc3c(c(NCCCN(C)C)c2c1)CCCC3`: the TGI came out at 46.8 µM.

Regarding `COC(=O)[C@@](C)(COC(=O)C(C)(C)C)NC(=O)OC(C)(C)C`, the TGI was above 100 µM.

In the case of `COc1ccccc1N=Nc1c(O)c(S(=O)(=O)O)cc2cc(S(=O)(=O)O)ccc12`, the TGI is above 100 µM.

`COc1ccc(-c2cc(C(=O)Nc3cc(C(F)(F)F)cc(C(F)(F)F)c3)c3ccccc3n2)cc1` registered a TGI of 20.2 µM.

`OCC(CCc1ccccc1I)C1=CCC2(CC1)OCCO2` (stereo unspecified) yielded a TGI of 47.5 µM.

For the compound `Cc1ccc(Sc2ccccc2[N+](=O)[O-])cc1`, the TGI is above 100 µM.

Compound `O=CC(O)C(O)C(O)C1CNC(=S)O1` (stereo unspecified) returned a TGI above 100 µM.

With `O=C(/C=C/c1ccc(C(F)(F)F)cc1)Nc1ccc(C=C2c3ccccc3C(=O)c3ccccc32)cc1`, the GI50 was above 100 µM and the TGI is above 100 µM.

With `CCOC(=O)CN(Cn1cncn1)Cn1cncn1`, the TGI is above 100 µM.

`Cn1c(=O)c2[nH]c(SCCN3CCOCC3)nc2n(C)c1=S` registered a TGI above 100 µM.

`CC1(C)C2CCC3(OCCO3)C1C(O)C2` (stereo unspecified) displayed a TGI above 100 µM.

The compound `O=C1C[C@@H]2[C@@H](CCC23CC3)N1` had a TGI above 100 µM.

The compound `O=NN(CCF)C(=O)NC1CC2CCC1C2` (stereo unspecified) had a TGI above 100 µM.

Consider `COc1ccc(C(=O)c2cc3c(N)c(C(=O)Nc4ccccc4)sc3nc2C)cc1`, for which the GI50 was 2.85 µM and the TGI is above 100 µM.

Regarding `COC(=O)C(=O)C(C(=O)C(=O)Nc1cccc([N+](=O)[O-])c1)c1nc2ccc(Cl)cc2[nH]c1=O` (stereo unspecified), the TGI was above 100 µM.

`CN(C)CCNC(=O)c1ccc(-c2nc3ccc4[nH]ncc4c3c3c2C2CCC3C2)cc1` (stereo unspecified): the GI50 was 1.76 µM and the TGI amounted to 7.92 µM.

`CCOC(=O)C(C)Sc1nnc(COc2ccccc2OC)n1-c1ccccc1` (stereo unspecified) displayed a TGI above 100 µM.

Consider `O=c1nc(-c2ccccc2)cc(CC(O)c2ccc(Cl)c(Cl)c2)[nH]1` (stereo unspecified), for which the TGI is above 100 µM.

`O=[N+]([O-])c1cccc(-c2nc(-c3ccccc3)c(-c3ccccc3)[nH]2)c1` came in with a TGI above 100 µM.

In the case of `CC12CCCCC1=[N+]([O-])C(C)(C)N2O` (stereo unspecified), the TGI is above 100 µM.

On to `NS(=O)(=O)c1ccc(N2N=C3c4ccccc4CC3C2c2cccs2)cc1` (stereo unspecified), for which the GI50 was 5.79 µM and the TGI is 47.9 µM.

`CN(C(=O)c1ccc2c(c1)sc1c(=O)n(C)c3ccccc3c12)c1ccccc1` came in with a TGI above 100 µM.

In turn, `Cc1cc(NC(=O)C2C3C=CC(O3)C2C(=O)O)no1` (stereo unspecified) came in with a TGI above 100 µM.

Consider `COCC1OC(S(=O)(=O)c2ccccc2)C(O)C(OC)C1OC` (stereo unspecified), for which the TGI was above 100 µM.

`O=C1CC(C(CC(=O)c2ccccc2)c2ccccc2)C(=O)c2ccccc2N1` (stereo unspecified) displayed a TGI above 100 µM.

In turn, `CC(=O)NC1=C(NCCCl)C(=O)c2ccccc2C1=O` displayed a TGI above 100 µM.

`Nc1cccc(S(=O)(=O)Nc2nnc(S(N)(=O)=O)s2)c1`: the TGI was above 100 µM.

The compound `O=[N+]([O-])c1ccc2oc(=Nc3ccccc3)c(Nc3ccccc3)nc2c1` returned a TGI above 100 µM.

Take `COC(=O)CCc1c(Cc2ccc[nH]2)[nH]c(C(=O)OCc2ccccc2)c1C`: the TGI was above 100 µM.

For the compound `Cc1ccc(Oc2ccccc2N)cc1`, the TGI was above 100 µM.

`O=C(O)CC[P+](c1ccccc1)(c1ccccc1)c1ccccc1`: the TGI is above 100 µM.

Turning to `CN(C)c1ccc(/C=C/C(=O)N[C@@H]2C(=O)N3[C@@H]2SC(C)(C)[C@@H]3C(=O)O)cc1`, the TGI was above 100 µM.

As to `O=S1(=O)N(Cc2ccccc2)[C@@H](Cc2ccccc2)[C@H](O)[C@H](O)[C@H](Cc2ccccc2)N1Cc1ccccc1`, the GI50 is 4.48 µM and the TGI worked out at 11.8 µM.

`Nc1ccc(Nc2cc(=O)[nH]c(=O)[nH]2)cc1`: the TGI was above 100 µM.

`Cc1ccc(NC2=NCCO2)c2c1CCC2`: the TGI is above 100 µM.

`COc1cc(C2C(Cl)C(=O)N2NC(=O)c2ccc(NC(C)=O)cc2)ccc1O` (stereo unspecified) displayed a TGI above 100 µM.

Consider `CN1CCN(CCOc2ccc(-c3cnc4c(-c5cccc(F)c5)cnn4c3)cc2)CC1`, for which the GI50 is 1.91 µM and the TGI was 4.08 µM.

With `O=C(Nc1ccc(F)cc1F)c1cc(Cl)ccc1O`, the GI50 was 2.07 µM and the TGI was 57.5 µM.

`COC(=O)C1=C(O)C(C(=O)OC)[C@]2(O)[C@@H](C(=O)OC)[C@H]1C[C@@H](c1ccccc1)[C@@H]2C(=O)OC` (stereo partly specified): the TGI was determined as 32.8 µM.

In turn, `Cc1cccc2c1c1ccc3c(c1n2C)C(=O)C=CC3=O` had a TGI of 30.9 µM.

`COc1ccc(CNC(=O)[C@@H]2CCCN2C(=O)[C@@H](C)N(C)C(=O)[C@H](C(C)C)N(C)C(=O)[C@@H](NC(=O)[C@H](C(C)C)N(Cc2ccccc2)Cc2ccccc2)C(C)C)c(OC)c1` (Bn2Val-V[NMeV][dNMeA]P-X25) yielded a TGI of 12 µM.

In turn, `COC(=O)C1=C(CS(=O)c2ccc([N+](=O)[O-])cc2[N+](=O)[O-])C2C=CC1C2` (stereo unspecified) gave a TGI above 100 µM.

On to `O=c1c2ccccc2nc(-c2ccccc2)n1NC(=S)Nc1ccc(Cl)cc1`, for which the TGI was above 100 µM.

With `COc1ccc(NC(=O)/C=C(C)/C=C/C=C(C)/C=C/C2=C(C)CCCC2(C)C)cc1`, the GI50 is 35.6 µM and the TGI turned out to be 56.8 µM.

`Cc1nnc2n(c1=O)CCN2C` came in with a TGI above 100 µM.

`CC(C)CC(NC(=O)OC(C)(C)C)C(=O)NC(CC(=O)OCc1ccccc1)C(=O)OCc1ccccc1` (stereo not drawn) (Boc-Leu-Asp(OBn)-OBn; configuration not given here): the TGI was above 100 µM.

`CC[C@@]1(OC(=O)CN)C(=O)OCc2c1cc1n(c2=O)Cc2c-1nc1cc3c(cc1c2CCl)OCO3`: the GI50 was 0.407 µM and the TGI was above 35.1 µM.

Consider `Cc1ccc(N(O)C(C)(C)C)cc1`, for which the TGI was above 100 µM.

For the compound `C=C/C(C)=C/C[C@]1(C)[C@H](C)[C@@H](OC(=O)CCC)[C@H](O)[C@@]23C(=C[C@H](OC)C[C@@H]12)[C@@H](OC(=O)CCC)O[C@H]3OC(C)=O`, the GI50 is 1.67 µM and the TGI was determined as 3.8 µM.

On to `Cc1cc(C)c2c(n1)sc1c(N)ncnc12`, for which the GI50 is above 25 µM and the TGI is above 25 µM.

Take `CC1=C2C(=CC(C)(C)[C@@H]2O)C(=O)[C@](C)(O)C12CC2`: the TGI was 0.324 µM and 0.527 µM.

For `O=C(Nc1ccc(-n2ccc3c(NC(=O)c4ccccc4)ncnc32)cc1)c1cccc(C(F)(F)F)c1`, the GI50 was 10.6 µM and the TGI was determined as 36.2 µM.

For `CSc1ncc(Br)c(Sc2nc(N)nc3nc[nH]c23)n1`, the GI50 is 10.4 µM and the TGI came out at 66.6 µM.

On to `O=S(=O)(O)c1cccc2cccc(N=Nc3c(O)ccc4ccccc34)c12`, for which the TGI was above 100 µM.

For `CC(C)(O)C1CC[C@]2(C)[C@H]3CC[C@@H]4[C@@]5(C)CCCC(C)(C)[C@@H]5CC[C@@]4(C)[C@]3(C)CC[C@@H]12` (stereo partly specified), the TGI is above 100 µM.

Source of the values: PubChem BioAssay (NCI).
